306 variants from a collection of fitness landscapes (doi:10.1126/science.1257360) can be followed below.

The other results are listed elsewhere or left out. Bounds are passed on as bounds.

The labels stand for the following.
B1: PhoQ; a variant is named by its letters at X, in order, P23837 (parent)
chain: MKKLLRLFFPLSLRVRFLLATAAVVLVLSLAYGMVALIGYSVSFDKTTFRLLRGESNLFYTLAKWENNKLHVELPENIDKQSPTMTLIYDENGQLLWAQRDVPWLMKMIQPDWLKSNGFHEIEADVNDTSLLLSGDHSIQQQLQEVREDDDDAEMTHSVAVNVYPATSRMPKLTIVVVDTIPVELKSSYMVWSWFIYVLSANLLLVIPLLWVAAWWSLRPIEALAKEVRELEEHNRELLNPATTRELTSLVRNLNRLLKSERERYDKYRTTLTDLTHSLKTPLXXLQXXLRSLRSEKMSVSDAEPVMLEQISRISQQIGYYLHRASMRGGTLLSRELHPVAPLLDNLTSALNKVYQRKGVNISLDISPEISFVGEQNDFVEVMGNVLDNACKYCLEFVEISARQTDEHLYIVVEDDGPGIPLSKREVIFDRGQRVDTLRPGQGVGLAVAREITEQYEGKIVAGESMLGGARMEVIFGRQHSAPKDE

The variants in this assay derive from B1. Nature of the assay: enrichment ratio after two sorts for PhoP signalling (ratio (wild type AVST 3.29)); higher = more functional. Particulars: with PhoP (E. coli).
As to GNYK, the enrichment ratio worked out at 1.18.
With TCVT the figure was not above 0.25; with GLAE, not above 0.25; with TIPT, not above 0.25.
With VYPF, the enrichment ratio is 1.11.
In the case of MTLH, the enrichment ratio is not above 0.25.
With HHEQ the figure was not above 0.25; with AWSN, not above 0.25.
With GWIF the figure was not above 0.25.
The value for GVGS was not above 0.25; that for REAH was 4.16; that for FLKS was not above 0.25.
As to GDRQ, the enrichment ratio was not above 0.25.
As for IPQK, the enrichment ratio is not above 0.25.
For the variant SSRQ, the enrichment ratio was not above 0.25.
With GMQW the figure was not above 0.25.
The value for YFCH was not above 0.25.
As to YCGR, the enrichment ratio was not above 0.25.
With LRCT the figure was not above 0.25; with QYFF, not above 0.25.
Take PYWM: the enrichment ratio is not above 0.25.
The value for EFSY was not above 0.25; that for MRQP was 0.285.
With YFQP the figure was not above 0.25; with SEYQ, not above 0.25; with VTMP, not above 0.25.
In the case of HQNT, the enrichment ratio was not above 0.25.
The value for YPPK was not above 0.25; that for EMIP was not above 0.25; that for HQKH was not above 0.25.
In the case of QVLM, the enrichment ratio is not above 0.25.
The value for YLKS was not above 0.25; that for RMYN was not above 0.25; that for FMFN was not above 0.25.
With TFRS, the enrichment ratio was not above 0.25.
With RSDR the figure was not above 0.25.
With FECT the figure was 5.14.
With GIMS the figure was 0.324.
With IHYK, the enrichment ratio is not above 0.25.
Regarding DYRT, the enrichment ratio is not above 0.25.
In the case of KICR, the enrichment ratio is not above 0.25.
Consider WTVA, for which the enrichment ratio was not above 0.25.
On to QKCI, for which the enrichment ratio is not above 0.25.
The value for PTDL was not above 0.25; that for ATPV was 6.48.
For the variant GGID, the enrichment ratio is not above 0.25.
The value for ICYL was not above 0.25; that for RHTF was not above 0.25; that for IRFK was not above 0.25.
For ANDS, the enrichment ratio is not above 0.25.
YCAG: the enrichment ratio is not above 0.25.
WDYT: the enrichment ratio is not above 0.25.
In the case of HNGW, the enrichment ratio is not above 0.25.
Turning to AERI, the enrichment ratio is not above 0.25.
The value for FEFT was not above 0.25.
With SAQA the figure was not above 0.25.
With RLAL the figure was not above 0.25; with MWMR, not above 0.25.
In the case of KVVV, the enrichment ratio was not above 0.25.
For QEQD, the enrichment ratio is not above 0.25.
For ECLD, the enrichment ratio was not above 0.25.
Take QDQL: the enrichment ratio was not above 0.25.
As to MLSQ, the enrichment ratio is not above 0.25.
Consider MYFW, for which the enrichment ratio is not above 0.25.
With RYKH, the enrichment ratio was not above 0.25.
With AIMH the figure was 4.85; with SIHR, not above 0.25; with FQTH, not above 0.25.
Consider SAPY, for which the enrichment ratio is not above 0.25.
The value for EYPN was not above 0.25.
Consider IRNA, for which the enrichment ratio was not above 0.25.
The value for RMQK was not above 0.25; that for PTWG was not above 0.25.
The value for NDYY was not above 0.25; that for YCKC was not above 0.25; that for KPVR was not above 0.25.
In the case of GWVS, the enrichment ratio is not above 0.25.
With INYC the figure was not above 0.25; with MFAC, not above 0.25; with TTGG, 4.26.
Turning to YYQL, the enrichment ratio was not above 0.25.
SADY: the enrichment ratio was not above 0.25.
The value for HEIH was not above 0.25; that for VSQS was not above 0.25; that for GFGM was 1.75.
Consider RTGM, for which the enrichment ratio was not above 0.25.
Consider YDYH, for which the enrichment ratio was not above 0.25.
With TPGQ the figure was 16; with YVSN, 0.299.
Take GPYP: the enrichment ratio is not above 0.25.
The value for IFGN was not above 0.25.
Consider EGHR, for which the enrichment ratio is not above 0.25.
With NMWI the figure was not above 0.25.
With VYCS the figure was not above 0.25; with YFTI, not above 0.25; with ITIS, not above 0.25.
Regarding KGDN, the enrichment ratio is not above 0.25.
The value for MWTF was not above 0.25.
Turning to VDNY, the enrichment ratio was not above 0.25.
The value for NKYW was not above 0.25; that for NKRK was not above 0.25; that for LPQY was not above 0.25.
The value for DKWS was not above 0.25; that for GSMK was not above 0.25; that for PLSH was not above 0.25.
The value for LFHL was not above 0.25.
Regarding VNVW, the enrichment ratio was not above 0.25.
DDVP: the enrichment ratio was not above 0.25.
As for ITNH, the enrichment ratio was not above 0.25.
With PNTN the figure was not above 0.25.
The value for QWYI was not above 0.25.
Take SWPK: the enrichment ratio is not above 0.25.
The value for LARI was not above 0.25; that for AIWV was not above 0.25.
Take IMFL: the enrichment ratio was not above 0.25.
With ENHQ the figure was not above 0.25; with KDTN, not above 0.25.
With ACLF the figure was 4.54; with YQSL, not above 0.25; with KCIG, not above 0.25.
The value for FCIF was not above 0.25; that for HYAG was not above 0.25; that for SYME was not above 0.25.
On to PDFL, for which the enrichment ratio was not above 0.25.
The value for PNLP was not above 0.25; that for EVFC was not above 0.25; that for QPLV was not above 0.25.
Turning to RCWI, the enrichment ratio is not above 0.25.
On to WGRY, for which the enrichment ratio was not above 0.25.
With WPKN the figure was not above 0.25; with KRHQ, not above 0.25; with RDSC, not above 0.25.
Take NDER: the enrichment ratio is not above 0.25.
With WDCC the figure was not above 0.25; with SMWA, not above 0.25; with MLCC, not above 0.25.
On to MEFT, for which the enrichment ratio amounted to 1.13.
With AQAV the figure was 5.37; with KRCF, not above 0.25.
For the variant YSSW, the enrichment ratio was not above 0.25.
The value for ICYK was not above 0.25.
The value for TMTI was 9.69; that for LMEI was not above 0.25; that for SAMD was not above 0.25.
Turning to DPQM, the enrichment ratio was not above 0.25.
As to DVAV, the enrichment ratio was not above 0.25.
The value for LFSM was not above 0.25.
The value for EYDQ was not above 0.25; that for YDWG was not above 0.25.
With VTAY the figure was not above 0.25.
Regarding METS, the enrichment ratio was found to be 6.13.
With DFCI the figure was not above 0.25; with WEQH, not above 0.25.
With IPRF the figure was not above 0.25; with PHAP, not above 0.25.
With PNCT the figure was not above 0.25.
KPIM: the enrichment ratio was not above 0.25.
With LEKC the figure was not above 0.25; with PNEL, not above 0.25; with MCLE, 0.98.
The value for FFYK was 0.359.
The value for YRSR was not above 0.25; that for YYND was not above 0.25.
In the case of PMDN, the enrichment ratio was not above 0.25.
Take QIPK: the enrichment ratio is not above 0.25.
The value for FMKL was not above 0.25; that for PQYD was not above 0.25.
Regarding ICDC, the enrichment ratio was not above 0.25.
In the case of QAHR, the enrichment ratio is not above 0.25.
The value for FPYY was not above 0.25; that for TYLL was 3.01; that for YICG was 1.07.
The value for FICK was not above 0.25; that for AMGY was 0.284; that for GPVM was not above 0.25.
Turning to MGHS, the enrichment ratio is not above 0.25.
The value for SQEH was not above 0.25.
The value for IRST was not above 0.25; that for VRST was not above 0.25; that for KYEH was not above 0.25.
With HIKR the figure was not above 0.25.
For the variant EDYG, the enrichment ratio was not above 0.25.
With YMRH the figure was not above 0.25; with ISRG, not above 0.25.
For the variant AVSV, the enrichment ratio came out at 7.85.
Consider IIRL, for which the enrichment ratio was not above 0.25.
With KSHH the figure was not above 0.25; with SCLY, 5.98.
The value for NRIV was not above 0.25; that for YHAN was not above 0.25.
The value for MCNW was not above 0.25; that for NSCQ was not above 0.25; that for HDHF was not above 0.25.
In the case of WPCD, the enrichment ratio is not above 0.25.
With VACT the figure was not above 0.25; with FRDM, not above 0.25; with VKRG, not above 0.25.
With MGLG the figure was 6.1; with YIGI, 0.304.
With SNNI the figure was 7.72; with MKRH, not above 0.25; with TFCT, not above 0.25.
FCYQ: the enrichment ratio is not above 0.25.
The value for EIMP was not above 0.25; that for DIGR was not above 0.25.
On to RSKK, for which the enrichment ratio was not above 0.25.
With MDPT, the enrichment ratio is not above 0.25.
In the case of GCPC, the enrichment ratio is not above 0.25.
For the variant MDWP, the enrichment ratio is not above 0.25.
The value for IGSF was not above 0.25.
With NPRM the figure was not above 0.25; with KKNM, not above 0.25; with QRLY, not above 0.25.
The value for EISC was not above 0.25.
With EQYG, the enrichment ratio is not above 0.25.
Consider MSEI, for which the enrichment ratio is not above 0.25.
The value for AHRN was not above 0.25; that for VKQT was not above 0.25.
With TCSQ the figure was 10.7; with WGFC, not above 0.25.
Consider NYTH, for which the enrichment ratio was not above 0.25.
Turning to PIKG, the enrichment ratio was not above 0.25.
As to WMKW, the enrichment ratio was not above 0.25.
With VLMT the figure was not above 0.25.
The value for WHPV was not above 0.25; that for RVMW was not above 0.25; that for WHPT was not above 0.25.
On to TQYD, for which the enrichment ratio was determined as 3.43.
The value for PKYY was not above 0.25; that for FTEY was not above 0.25.
With WCPV the figure was not above 0.25.
With RGRF, the enrichment ratio is not above 0.25.
On to NPGK, for which the enrichment ratio is not above 0.25.
VYMY: the enrichment ratio is not above 0.25.
In the case of RRAS, the enrichment ratio worked out at 0.387.
The value for TRGE was not above 0.25; that for YQQM was not above 0.25; that for TIIW was not above 0.25.
Consider QEVA, for which the enrichment ratio is not above 0.25.
The value for WMHT was not above 0.25.
With YGKQ the figure was not above 0.25; with RSGF, not above 0.25.
On to GHYK, for which the enrichment ratio is not above 0.25.
For the variant LMDF, the enrichment ratio was not above 0.25.
With FFIG, the enrichment ratio was not above 0.25.
As to DRTT, the enrichment ratio was not above 0.25.
With RIRR the figure was not above 0.25; with MTVS, not above 0.25; with PCWN, not above 0.25.
The value for KTAY was not above 0.25.
For KSKK, the enrichment ratio is not above 0.25.
On to DHAE, for which the enrichment ratio is not above 0.25.
The value for DNMC was not above 0.25.
The value for WADW was not above 0.25; that for SSCW was 2.47.
With YLTW the figure was not above 0.25.
Take FENW: the enrichment ratio is not above 0.25.
With CINV the figure was not above 0.25.
On to FNAT, for which the enrichment ratio was not above 0.25.
With RKKD the figure was not above 0.25.
The value for AQWL was not above 0.25; that for NCYR was not above 0.25; that for GFII was not above 0.25.
For TYKA, the enrichment ratio was not above 0.25.
Take EIKP: the enrichment ratio is not above 0.25.
The value for PREW was not above 0.25; that for IRTE was not above 0.25; that for RRNC was not above 0.25.
HWWI: the enrichment ratio was not above 0.25.
With PNKA the figure was not above 0.25; with WGYD, not above 0.25.
On to KHCI, for which the enrichment ratio is not above 0.25.
The value for YYIE was not above 0.25.
The value for IITM was not above 0.25; that for HAYP was not above 0.25; that for FEDR was not above 0.25.
The value for NEYG was not above 0.25; that for GASP was not above 0.25.
Regarding AHNG, the enrichment ratio was not above 0.25.
With SQRA the figure was not above 0.25; with CMIR, not above 0.25.
The value for DRGY was not above 0.25; that for WSMI was not above 0.25; that for MYGQ was not above 0.25.
The value for SAMV was 14.1.
In the case of FCKK, the enrichment ratio was not above 0.25.
As to HTAR, the enrichment ratio was not above 0.25.
For SNLF, the enrichment ratio was 6.89.
With RMAL the figure was not above 0.25; with WTCH, not above 0.25; with GTMF, 8.13.
With DGVW the figure was not above 0.25.
As to VYFL, the enrichment ratio is not above 0.25.
The value for PPCP was not above 0.25.
In the case of SYTY, the enrichment ratio was not above 0.25.
With FNEP the figure was not above 0.25; with EQTT, not above 0.25.
With YMWC the figure was not above 0.25; with EDSP, not above 0.25.
On to ELKH, for which the enrichment ratio was not above 0.25.
With LWKW the figure was not above 0.25; with AQKH, not above 0.25; with QHDG, 110.
With IFRK the figure was not above 0.25; with WRSD, not above 0.25.
With TQTP the figure was not above 0.25.
